# Laboratory results from article PMC12136788.
# The other results are listed elsewhere or left out.
# B1: ENSG00000107863:be:win_3351|CDS|ENSG00000107863|bound_else_gene|NA|bound_elsewhere_windowed (ssRNA)
# RNA: GGGAGUUCUACAGUCCGACGAUCAAAAGACAAAGGCACAUGGAGAAAAGGCAUUCCAAGUAUCAUGAGAAAGACAUUUGAGAAAAAGCCAACUGCUACAGGAACUUUCGGCGUCCGACUAGAUGACUGCCCACCAGCUCAUACCAACAGAGGAUUGAGCAUCA
# B2: chr6:145805060:145805161:-|CDS|ENSG00000118496|unk|total|mutant (ssRNA)
# RNA: GGGAGUUCUACAGUCCGACGAUCAGAAGAUCCUAUGGGCCUCCAAGGAACCGAUCUGAUCACAGCAGCAUUGCUUUUUUGUCCCGGAGAUUCUCCAGGAGGGAGGGGUAUAUCUGACCGCCGCAUGGCUGAUAUUUAUCACAUCAACAGAGGAUUGAGCAUCA
# B3: chr7:93926053:93926159:+|CDS|ENSG00000127920|unk|FALSE|unique (ssRNA)
# RNA: GGGAGUUCUACAGUCCGACGAUCGUCUAAAUGUUCUGAAGAAAUAAAGAACUAUAUUGAAGAACGUUCUGGAGAGGAUCCUCUAGUAAAGGGAAUUCCAGAAGACAAGAACCCCUUUAAAGAAAAAGGCAGCUGUGUUAUUUCCAACAGAGGAUUGAGCAUCA
# B4: chr9:35056615:35056731:-|3pUTR|ENSG00000165280|msi1|FALSE|unique (ssRNA)
# RNA: GGGAGUUCUACAGUCCGACGAUCCCCUAUCCAACCUGGGUAGGUGGGUAGGGGCCACAGUUGCUGGAUGUUUAUAUAGAGAGUAGGUUGAUUUAUUUUACAUGCUUUUGAGUUAAUGUUGGAAAACUAAUCACAAGCAGUUUCCAACAGAGGAUUGAGCAUCA
# B5: chr2:25742488:25742589:-|CDS|ENSG00000143970|unk|FALSE|unique (ssRNA)
# RNA: GGGAGUUCUACAGUCCGACGAUCCACUUUAAGUAAGGAGAAUUACCUGUUCACUAGAGGCCAAACAUUUGAUGAAAAGACCCUAGCCAGAGAUUUAAUUCAGGCAGCACAGAAGCAGAUGGCUCAUGCAGUGAGAGGUAAGGCCAACAGAGGAUUGAGCAUCA
# B6: chr3:11298707:11298833:+|CDS|ENSG00000197548|unk|FALSE|unique (ssRNA)
# RNA: GGGAGUUCUACAGUCCGACGAUCAUAAUGGCGGCAGCUACGGGGGAUCCUGGACUCUCUAAACUGCAGUUUGCCCCUUUUAGUAGUGCCUUGGAUGUUGGGUUUUGGCAUGAGUUGACCCAGAAGAAGCUGAACGAGUAUCGGCAACAGAGGAUUGAGCAUCA
# B7: chr5:159157431:159157536:-|3pUTR|ENSG00000145860|unk|FALSE|bound_elsewhere (ssRNA)
# RNA: GGGAGUUCUACAGUCCGACGAUCCAAAAAGUGUUUUUCAGACCUCGGUAUUCCUAAUGUGGGAUGUGACUUUAUUUUAUUUUUAGUAGCAAAUUUGGAUGUAGACUGACAGACAUAGCUGAAUGUCUUAAUAAAUUUAAAUUUCAACAGAGGAUUGAGCAUCA
# B8: ENSG00000114354:stop:overlap|stop_codon|ENSG00000114354|stop_codon|NA|stop_codon (ssRNA)
# RNA: GGGAGUUCUACAGUCCGACGAUCCAGCCGCAGGCUCCACCUCAGCAGCCUCAACAGUAUGGUAUUCAGUAUUCAGCAAGCUAUAGUCAGCAGACUGGACCUCAACAACCUCAGCAGUUCCAGGGAUAUGGCCAGCAACCAACUCAACAGAGGAUUGAGCAUCA
# B9: chr16:74449243:74449344:-|3pUTR|ENSG00000090863|msi1|FALSE|bound_elsewhere (ssRNA)
# RNA: GGGAGUUCUACAGUCCGACGAUCUCUCCUAUCCUCCCAUCCUCCAGGCCUGUGGUGUGACUUCUGCCCCGAAGUUCCUACUAUAGUGAGUCAUCUGGGGAGAGGCCACUGAAAAGAGGCCUUCCCUUCCCAUUUCCUCCCCUGCAACAGAGGAUUGAGCAUCA
# B10: chr3:133826890:133826991:-|3pUTR|ENSG00000154917|unk|FALSE|unique (ssRNA)
# RNA: GGGAGUUCUACAGUCCGACGAUCUUUGAACGUGUUUCAGAUGUCAUGUGUUUAGUUUUUAUAUGUGUGUACAUAAUUAUAUAUAGAGAUAGACUUGUGUAUACACCUUCCACAAACACAUCCUCACGGAGAUACAUGUGCUCACAACAGAGGAUUGAGCAUCA
# B11: chr8:88167829:88167930:-|CDS|ENSG00000156103|msi1|FALSE|bound_elsewhere (ssRNA)
# RNA: GGGAGUUCUACAGUCCGACGAUCCUUUGAUGUGUGGCAGAAUGUAACUCCUCUGACAUUUGAAGAAGUUCCCUACAGUGAAUUAGAAAAUGGCAAACGUGAUGUGGAUAUAACCAUUAUUUUUGCAUCUGGUUUCCAUGGGGACAACAGAGGAUUGAGCAUCA
# B12: chr12:293013:293114:-|CDS|ENSG00000073614|unk|total|mutant (ssRNA)
# RNA: GGGAGUUCUACAGUCCGACGAUCACUAAAAGUGAAAGGAAAGGACUCUUCAGAGAAGAAACGGAAACGGAAGCCCGAAAAGGCCGAGCAACUUUUUGGAGAAGGAAAACAGAAGUCCAAGGAGUUAAAGAAAAUGGACAAACCCAACAGAGGAUUGAGCAUCA
# B13: chr20:56370492:56370607:-|CDS|ENSG00000087586|unk|FALSE|unique (ssRNA)
# RNA: GGGAGUUCUACAGUCCGACGAUCUCGGAUGCAUGAUGAGAAGGUGGAUCUCUGGAGCCUUGGAGUUCUUUGCUAUGAAUUUUUAGUUGGGAAGCCUCCUUUUGAGGCAAACACAUACCAAGAGACCUACAAAAGAAUAUCACGCAACAGAGGAUUGAGCAUCA
# B14: chr16:21655520:21655610:+|3pUTR|ENSG00000197006|msi1_unk|FALSE|overlapping (ssRNA)
# RNA: GGGAGUUCUACAGUCCGACGAUCUCUGUGUUCACAAUUACGUGAAGGGAGGACCCUUGGGGACCGCCAUUCUAAAUAUCAUGUAGGAAUUUAAAAAGCCAAAAUACUAAUUAUUUCUUUGUAGUGUGUAAAGGAAUGUUUUUACAACAGAGGAUUGAGCAUCA
# B15: chr14:100882551:100882663:-|CDS|ENSG00000254656|unk|FALSE|unique (ssRNA)
# RNA: GGGAGUUCUACAGUCCGACGAUCGCUCUCCCCAGACCCUAUCAUACCUCAGAACGUGAUUCACUUCAUCCUAAAGGACAUGCUAGGGUUCUUUGUGCUUUCUUAUGGCCAGGAAGUCCUGAUCUACUCAAUGAGUCAGGAGGACAACAGAGGAUUGAGCAUCA
# B16: chr1:26281289:26281390:+|3pUTR|ENSG00000142669|msi1_unk|total|mutant (ssRNA)
# RNA: GGGAGUUCUACAGUCCGACGAUCUCCCUCCUCUCUAAAUGCCGUCCCCUCUCCUCCAUCUAAAGGCAACAUUCCUUACCCAUCCGUCUCAGAAAUUGUCUUAAGCAACAGCCCCAAAUGCUGGCUGCCCCCAGCCAAGCAUUGCAACAGAGGAUUGAGCAUCA
# B17: ENSG00000113068:stop:overlap|stop_codon|ENSG00000113068|stop_codon|NA|stop_codon (ssRNA)
# RNA: GGGAGUUCUACAGUCCGACGAUCGAAGCGUUAAGGAAGCUGAGGACAACAUCCGGGAGAUGCUGAUGGCACGAAGGGCCCAGUAGGGAGCCUCUCUGGGAAGCUCUUCCUCCUGCCCCUCCCAUUCCUGGUGGGGGCAGAGGACAACAGAGGAUUGAGCAUCA
# B18: chr11:86278520:86278536:+|CDS_3pUTR|ENSG00000074266|msi1_unk|FALSE|overlapping (ssRNA)
# RNA: GGGAGUUCUACAGUCCGACGAUCUGAUGCCAGUAUUUGGCGCUGGGAUCGACUUCGAUAAAAUACUUUUGCCUAAUCAAAAUUAGAGUGUGUUUGUUGUCUGUGUAAAAUAGAAUUAAUGUAUCUUGCUAGUAAGGGCACGUACAACAGAGGAUUGAGCAUCA
# B19: chr12:76028832:76028933:-|3pUTR|ENSG00000139289|msi1|total|mutant (ssRNA)
# RNA: GGGAGUUCUACAGUCCGACGAUCAAAGGAAAAGACUGGAUAAACACAGGAUUUUCAGUAAGAAAACAACCCCAGUCUUGUCUCCGAAGCCACUUGUUGAGGAGUCUGUUGGGGGAAAAAAGAGGAUAUGCUUUUAAAGGCCGACAACAGAGGAUUGAGCAUCA
# B20: chr2:88027786:88028563:-|CDS|ENSG00000172086|control|control|control (ssRNA)
# RNA: GGGAGUUCUACAGUCCGACGAUCAACCGUACAUGUCAGUACAGAAAAGCUUAAGAAUCGAAAGGAGAAAAAAAGCCGAGAUGUAGUCUCUAAGAAAGAGGAACGUAAGCGUACAAAAAAGAAAAAGGAACAAGGCCAAGAAAGCAACAGAGGAUUGAGCAUCA
# B21: chr11:85958428:85958534:-|3pUTR|ENSG00000073921|unk|total|mutant (ssRNA)
# RNA: GGGAGUUCUACAGUCCGACGAUCAGAAACAAUAACUGAAAUUAACUUUUCUUUUUUUAAAAAAAAUUAUAUUCAGUUUGCAGCCGACAUUCCUUAAGUAUUUGUAUUUAUUUAUGAUUAUCAAUUUUACAUAACAUUAAUAUUCAACAGAGGAUUGAGCAUCA
# B22: chr17:18327447:18327548:+|3pUTR|ENSG00000176994|msi1|total|mutant (ssRNA)
# RNA: GGGAGUUCUACAGUCCGACGAUCGUCAACUCACAGAUUCUGCAGCAGCUGCUCCACCCACAAUAAAGCAAACGCCGACAGGCCCGACCCCAGAUUGCAGGGGCUGCCACCUACAAGGUGGGACCACAGGCUGCCUCACCGGGACAACAGAGGAUUGAGCAUCA
# Target: MSI1 full-length (mouse, UniProt Q61474 1-362)
# Test: nsRBNS (natural sequence RNA bind-n-seq); RBNS binding buffer (assumed for nsRBNS): 25 mM Tris pH 7.5, 150 mM KCl, 3 mM MgCl2, 0.01% Triton X-100, 500 ug/ml BSA, 20 U/ml SUPERase-In, 4 C; UNK is unkempt and MSI1 is Musashi-1; names of the RNAs are library labels; protein concentration not given here; high values mean tight binding
# Chain of UniProt Q61474 (Q61474 whole entry): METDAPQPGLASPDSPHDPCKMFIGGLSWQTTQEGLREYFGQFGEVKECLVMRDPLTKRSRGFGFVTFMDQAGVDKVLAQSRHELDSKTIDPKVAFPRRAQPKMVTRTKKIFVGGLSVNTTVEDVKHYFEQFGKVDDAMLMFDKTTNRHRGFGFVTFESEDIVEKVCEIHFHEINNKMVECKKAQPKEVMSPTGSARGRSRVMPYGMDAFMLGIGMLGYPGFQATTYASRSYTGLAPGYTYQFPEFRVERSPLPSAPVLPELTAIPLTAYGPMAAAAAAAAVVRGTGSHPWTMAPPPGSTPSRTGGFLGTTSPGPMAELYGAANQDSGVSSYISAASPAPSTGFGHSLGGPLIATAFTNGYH
row,Binder,binding signal [enrichment R]
1,B1,0.372
2,B2,0.423
3,B3,0.308
4,B4,2.39
5,B5,0.626
6,B6,1.02
7,B7,23.3
8,B8,0.745
9,B9,0.52
10,B10,9.35
11,B11,0.253
12,B12,0.418
13,B13,0.408
14,B14,3.67
15,B15,0.354
16,B16,0.949
17,B17,0.7
18,B18,4.91
19,B19,0.355
20,B20,1.36
21,B21,2.3
22,B22,0.649
